Assay results as given in paper PMC6212790.
The list shows a part of the results. At the low end of the ranking the order means little.

target: T1, GST-Rok (full length) (UniProt O34857); experiment: protein binding microarray; conditions: Rok is a gene silencer of Bacillus subtilis; high values mean tight binding; most listed sequences are background and not binding sites; double strand, one strand shown;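 also: rank score from −0.5 (least bound) to 0.5 (best bound)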
T1 sequence: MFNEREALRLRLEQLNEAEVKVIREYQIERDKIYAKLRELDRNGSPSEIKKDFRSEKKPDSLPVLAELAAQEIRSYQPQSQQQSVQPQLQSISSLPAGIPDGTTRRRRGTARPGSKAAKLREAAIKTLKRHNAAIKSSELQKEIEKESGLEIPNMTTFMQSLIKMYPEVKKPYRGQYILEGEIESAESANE

Sequence	binding signal [E-score]
ATTCGATC	0.232
GAAATCCA	0.031
AGGAACCC	-0.114
AGCTCCTA	0.00519
GAGCAAGA	-0.164
TCTATTAA	0.215
CGGGCGGC	-0.388
AGAACTCC	-0.133
ATAGAAGC	0.307
ACGAAATA	0.212
AAGTTTTG	0.00498
TATGTCAA	0.234
AACATACC	0.244
AGTAAAGA	0.132
CCATTTAG	0.0659
AACCCAGA	-0.0229
TACCGCTA	0.209
TCAGCTGA	-0.0348
ATCGAATC	0.231
TAAATAGA	0.228
CATTGGTC	-0.0292
CAGTCGCA	-0.0605
CCCGTGCC	-0.332
GACTCCTA	0.0242
TAGATAGA	0.318

Sequence	binding signal [E-score]
CCAGCCAG	-0.269
ATATTGCA	0.204
ACAGATTG	0.104
GCATTCGC	-0.0919
GGCTCGTA	-0.244
GAATGACC	-0.216
ATTGCCGG	-0.0899
AGCATTAG	0.15
CTTACTGA	0.208
AAACAGCC	-0.181
GCAATCAC	-0.0379
AGTTTGAA	0.091
ACAAGCCA	-0.181
AATCCTAC	0.257
CTGACTTC	-0.0847
CTTATGCA	0.116
AACGCTAA	0.174
GGTCAATA	0.0981
GTGGTCCA	-0.173
ACATGGGT	0.0268
ACAGACGT	0.0146
CACGTAAG	0.0075
ATTCTACG	0.18
CTTCAATA	0.0452
ATTCGTTC	0.0279

Sequence	binding signal [E-score]
AGTATTGG	-0.051
TCATCAAA	-0.0807
CGGACTAC	-0.0835
AAACCACG	0.054
CGGGATTC	-0.0829
GTTCCATA	-0.00825
AGACTATA	0.286
GCACTCCA	-0.231
AGGCGGCG	-0.178
CATTGGGG	-0.333
AGGCGGAT	-0.239
AGTCTTAA	-0.106
ACAAACAT	0.269
TCTAGTAA	0.351
AACGGCCC	-0.15
ATGAGAGG	-0.154
GTCTCAGA	-0.101
CACATCTG	-0.0365
TACCGTAA	0.223
AGTCCACT	-0.151
CCGGCTAG	-0.0804
AGATGGAG	-0.113
GGATTTCA	0.0535
GTACTAAA	0.241
GTTTCGAA	0.146

Sequence	binding signal [E-score]
AAGCAATT	0.274
AGCTGTCG	-0.0533
AAGCCAGT	-0.178
ATGGACGA	-0.158
ATGCATGC	-0.138
CCTTCCAG	-0.191
ACCCGTTA	0.0593
GCCATTGA	-0.105
CTCGCGAA	-0.00276
GACAATCA	0.078
GACAGCTA	-0.0314
AGGGGCAT	-0.109
CGAGGATC	0.048
CGCTTCTC	0.0455
ATCTACCA	0.48
CAATTAGG	-0.146
ATCTGCCC	-0.298
CATGCAAC	0.077
CGACAAAG	-0.254
AAAACTTA	0.232
ATACACCA	0.19
CTATATGC	0.185
ACACCAAC	-0.0562
GTATGCAA	-0.066
ACAGCCTC	-0.236

Sequence	binding signal [E-score]
AGACATCC	-0.21
CGGCGATC	-0.131
CACGTGGC	-0.305
ATTTCCCG	0.0149
CCATGTCC	0.11
ATACGCGC	0.119
GGATTCGA	0.0409
AGCAAAAT	0.272
ACCGAGGC	-0.186
CGCTTTTA	-0.112
CGAAAGCG	-0.287
CAACCATC	-0.0661
ATCCGAAC	-0.133
ACCCGACC	-0.271
ACTCCTTA	-0.118
CGAGGGCA	-0.318
GAGTCGTA	0.0305
AATATCAT	0.233
CCGAACTC	0.0171
CCGTGTGC	-0.0528
ACAGGACC	-0.0993
ATCGCCAC	-0.0751
GATGGCGC	-0.152
CCCTTCGG	-0.39
GCCTACTA	0.0988

Sequence	binding signal [E-score]
CAGTGTTC	-0.00359
TATGTTAA	0.269
CCGAACAA	-0.0804
CAGTAACG	0.112
CAGCCGAC	-0.279
AGGTAGAT	0.359
ATTATATC	0.377
AACTTCGT	0.0718
AGTTCCCA	-0.096
AACAGACT	-0.0964
ACGGCCTG	-0.0914
ACACGGAT	0.15
CCCGTTGC	-0.106
ATAAAGGC	-0.0454
GCTATTCA	-0.00299
GTATCTGA	-0.0276
TAACGCAA	0.276
GCATTCCC	-0.31
AAGCTCGG	-0.133
AATCAAAA	0.072
TAGTACTA	0.44
ACCGATGG	-0.2
GATGTTCC	0.0427
GTGCTAGA	0.275
GGTACAAA	0.282

Sequence	binding signal [E-score]
CGCACTTC	-0.15
CACTCCCG	-0.118
CAAGTTCG	0.0316
ATTAACCG	0.0492
CAGCATCG	-0.146
CCTCGAGA	-0.0474
ACTGCTAC	0.217
GAGCCTCC	-0.415
ATTATAAA	0.157
CTCTGATC	-0.0643
AGATCCGC	-0.166
AGGCGACT	-0.163
AGTCCAAT	0.0567
ACTGACAC	-0.0718
CCGGGTTC	-0.251
GATCTCGC	-0.075
GTGAGTAA	0.0609
ATCGACCA	0.12
ATCTACTG	0.382
ACCTCAGG	-0.116
CCTAGGTC	-0.0668
AGGAATTA	0.101
ATACGACG	0.212
CGATTCAG	-0.0766
ATATCTGA	0.111

Sequence	binding signal [E-score]
ACCCAGGT	-0.252
CGATGCTA	0.0795
AAAATGTT	0.1
ATGAAAAG	-0.00495
ATATGCCA	-0.0946
CGAGCGCA	-0.0105
CGCCGCTA	0.201
ACCATCCT	-0.0786
ATTATTAA	0.0696
AGGATCCC	-0.153
ATAGAGCG	-0.00269
AGCCGACC	-0.108
AGACACTC	-0.156
CCTCGATA	-0.188
AGCACGAA	-0.0288
CATCAAAC	-0.191
AATTTGAC	0.16
TTTCAAAA	-0.0736
GGGTCTAA	-0.199
AGTGGGCG	-0.0855
CACGTAGA	-0.0333
TACACCCA	0.0585
TGAATCAA	-0.14
GCCATACC	-0.211
ACAGTCTG	-0.235

Sequence	binding signal [E-score]
GCTACTCA	0.0298
CAATATAG	0.211
ATATATCC	0.18
ATCGTGAG	-0.0159
CTTGACGA	-0.11
ACAAAAAG	-0.0244
AAAATTTT	0.153
GGACATAA	0.174
TCCAGCGA	-0.0896
CCCAGGGA	-0.307
CAGTATGA	0.154
AAGCACTA	0.024
CAAGCCTC	-0.141
CCATCTAG	-0.0113
ACTTGTGC	0.0615
AGCGTCAG	-0.211
CACGCGTG	0.0928
GCTAGGCC	-0.245
CCATCCCC	-0.223
GCAGTCGA	-0.234
ACTAAAAT	0.406
AGTCAGTC	-0.122
GGCCCGGA	-0.457
AAGTTCAT	0.147
TCATTTCA	0.0488

Sequence	binding signal [E-score]
AGCACAAC	-0.0101
CAATCTAG	0.285
ATAACGCG	0.134
GCTTCGAA	-0.000456
CTGATGAA	-0.0189
AGGCTTAA	-0.159
GGTCGAAA	0.0161
CCGATAGG	0.0382
AGCATGCA	-0.128
CAATTCAG	-0.00579
ATGGTCCC	-0.109
CAATCCCA	-0.0104
CTACAAAC	0.242
CAATTCGG	0.0151
ATACTCGC	0.0576
ACTGCATA	0.297
CCCCTTTC	-0.253
TAACTCTA	0.19
CGATAATC	0.159
TCCAACAA	-0.0731
AACGTTTG	0.124
AAAAGTCC	-0.105
AAAACGTT	0.054
CTAGACGC	-0.135
GGATTGTA	0.185

Sequence	binding signal [E-score]
TCTCTACA	0.0813
TACGATCA	0.0131
ACTGCGAC	-0.0623
AGTCTAAG	-0.0824
AGATTGGC	0.136
ACTTCGGA	-0.0792
ATTGTGAA	0.0587
ATAAAACA	0.129
GAATTAGA	0.00787
GGCTAACC	-0.335
ACGCGTAG	0.116
AGGACCAA	-0.0173
GAATCCAC	-0.0886
ATGCGAGA	0.00939
AACTTACT	0.222
CTTCTTAA	-0.0137
CCCTGGGA	-0.103
GCGTTTCA	-0.175
GCCCAACA	-0.0691
TACCAGAA	0.0741
ACGAGCCA	-0.0725
AACGTCAT	0.00721
AAGAGAAC	-0.0681
ATCGCCCA	-0.0827
TACCTAGA	0.233

Sequence	binding signal [E-score]
AGGGATGA	-0.0335
ACTACTTC	0.193
AATCTATC	0.377
AGATCATG	0.089
ATATCTTA	0.262
CAGACTGC	-0.298
CAAATTGC	-0.00859
AGGATTGC	-0.00775
GGGAGATA	0.0382
AAGATCCG	-0.125
GGATTACA	0.0462
CGCTGCCC	-0.189
CTACTACA	0.339
TTACGGAA	0.127
AAGGACAC	-0.165
GCATATCC	-0.164
GGATCAGA	-0.0818
AATTGGGT	0.116
ATGCGCGC	0.0747
CGATGGAC	0.0478
CTCGAGCC	-0.175
GAGATAAA	-0.00816
ACCCGGAT	-0.224
TACACATA	0.315
CAGCTGGC	-0.222

Sequence	binding signal [E-score]
ATTAAACC	0.0133
CTACAGTC	0.187
ACTAGCCA	0.0883
CCATGGAG	-0.0194
ATTAGGCG	0.0082
AGACAGTC	-0.145
CACAACGA	0.104
ACCCAAGC	-0.172
CACCCAAC	-0.0294
CCCAATCC	-0.278
CCAGTGAA	-0.0951
CCTTTGTA	0.207
ACGTGAAT	0.195
GCGCTCAC	-0.248
AGTTAACT	0.256
ATTTAGCA	0.23
ACGGACCT	-0.387
ATGGGCGA	-0.266
CGATGCCA	-0.254
CAGCCCCC	-0.49
GCGGCGGA	-0.29
AGTTACTG	0.207
ATGCACGG	0.147
GGTTCGAA	-0.0631
ACCTACAT	0.271

Sequence	binding signal [E-score]
TATGGCCA	0.0208
CCAGCGGA	-0.204
TTGAGAAA	0.146
CACGCGGA	0.0379
CGCCTTCA	0.0118
CACTCGTA	0.134
CATCTGCG	-0.15
AAGACTCT	-0.0697
CTACTAGC	0.232
ATAAAGTC	-0.00136
ATAGGCTG	0.0136
GGTATAAC	0.313
GACTGGGC	-0.371
GCATCACC	-0.0482
CCGTGACG	0.0126
CTACATCC	0.0773
ATACCGGA	-0.147
AACTCAGG	0.0467
ACCTCTGA	0.0407
